According to patent EP4578871A1 (Mustbio Co., Ltd., dated 2025):

Key:
Assay in all cases: SPR, receptor fixed on CM5 chip
human IL2Rαβγ = biological target: T1, human IL2Rαβγ (human, UniProt P01589 22-213; P14784 27-239; P31785 23-262, limits assumed)
T1 construct: Trimeric receptor fixed to a CM5 chip
T1 sequence (looked up) 1: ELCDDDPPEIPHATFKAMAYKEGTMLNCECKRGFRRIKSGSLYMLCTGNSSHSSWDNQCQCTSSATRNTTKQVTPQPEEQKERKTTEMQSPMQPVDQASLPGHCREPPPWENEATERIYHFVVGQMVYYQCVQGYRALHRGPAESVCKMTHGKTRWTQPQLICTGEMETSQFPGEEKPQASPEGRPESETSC
T1 sequence (looked up) 2: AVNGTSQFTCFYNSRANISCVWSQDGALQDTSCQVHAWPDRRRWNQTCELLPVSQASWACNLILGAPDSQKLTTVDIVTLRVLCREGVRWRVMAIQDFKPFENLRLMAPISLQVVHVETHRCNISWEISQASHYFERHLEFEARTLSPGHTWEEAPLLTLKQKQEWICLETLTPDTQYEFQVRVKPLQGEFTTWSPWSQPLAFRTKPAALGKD
T1 sequence (looked up) 3: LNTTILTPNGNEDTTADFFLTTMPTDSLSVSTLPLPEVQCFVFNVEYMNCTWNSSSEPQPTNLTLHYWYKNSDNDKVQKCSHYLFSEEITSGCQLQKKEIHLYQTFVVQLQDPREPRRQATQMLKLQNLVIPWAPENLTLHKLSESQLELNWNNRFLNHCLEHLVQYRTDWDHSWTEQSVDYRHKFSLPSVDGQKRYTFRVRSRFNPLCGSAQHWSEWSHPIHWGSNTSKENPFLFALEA

human IL2Rα = biological target: T2, human IL2Rα (human, UniProt P01589 22-213, limits assumed)
T2 construct: also called IL2 receptor α; CD25
T2 sequence (looked up): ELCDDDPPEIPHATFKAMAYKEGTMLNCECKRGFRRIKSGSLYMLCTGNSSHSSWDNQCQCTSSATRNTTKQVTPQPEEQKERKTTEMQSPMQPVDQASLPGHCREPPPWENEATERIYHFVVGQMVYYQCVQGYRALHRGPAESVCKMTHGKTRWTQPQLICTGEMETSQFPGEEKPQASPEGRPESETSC

human IL2Rβγ = biological target: T3, human IL2Rβγ (human, UniProt P14784 27-239; P31785 23-262, limits assumed)
T3 construct: Dimeric receptor fixed to a CM5 chip
T3 sequence (looked up) 1: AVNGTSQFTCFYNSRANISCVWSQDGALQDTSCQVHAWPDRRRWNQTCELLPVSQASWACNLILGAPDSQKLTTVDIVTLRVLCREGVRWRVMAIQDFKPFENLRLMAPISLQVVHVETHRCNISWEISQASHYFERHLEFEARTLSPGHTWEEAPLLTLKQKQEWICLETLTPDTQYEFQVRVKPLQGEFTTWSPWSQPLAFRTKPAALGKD
T3 sequence (looked up) 2: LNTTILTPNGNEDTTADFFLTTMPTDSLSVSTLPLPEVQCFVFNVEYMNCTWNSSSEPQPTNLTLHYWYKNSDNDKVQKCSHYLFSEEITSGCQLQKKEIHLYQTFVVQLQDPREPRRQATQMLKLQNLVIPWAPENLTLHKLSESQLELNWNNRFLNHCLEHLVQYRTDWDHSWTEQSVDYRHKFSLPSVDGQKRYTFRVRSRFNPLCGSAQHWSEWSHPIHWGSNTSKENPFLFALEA

B1: Aldesleukin (Proleukin, Novartis, Switzerland) (ligand)
chain: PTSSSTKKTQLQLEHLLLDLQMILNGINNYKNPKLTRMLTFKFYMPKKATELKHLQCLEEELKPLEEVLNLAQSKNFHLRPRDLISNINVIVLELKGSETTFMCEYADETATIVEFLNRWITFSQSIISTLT
notes: Marketed IL2 analogue; also called positive control (for IL2 receptors)
Kd (human IL2Rαβγ): 0.05 nM | Kd (human IL2Rα): 15.8 nM | Kd (human IL2Rβγ): 0.25 nM | βγ / αβγ (ratio of binding affinity to IL2Rβγ over IL2Rαβγ) (human IL2Rβγ): 5 ratio
